# Measured values: the supplement of paper PMC11417369
# ± gives the standard deviation of the averaged measurements. The list shows a part of the results.
# Test system: PfAP2-LT AP2 domain (GST-tagged)
# Assay: gcPBM binding intensity (ln(normalized median fluorescence intensity)); higher = stronger DNA binding
# How it was run: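 Plasmodium falciparum DNA-binding domains carrying a GST tag were expressed in E. coli and applied for 1 h, at about 25 μg on average, to an Agilent 4 × 180k array. The array held primer-extended double-stranded 36-bp intergenic genomic probes together with negative controls, and binding took place in 1× PBS with 1% milk, 0.2 mg/ml BSA, 0.5% salmon testes DNA and 0.03% Triton X-100. An Alexa488 anti-GST antibody detected bound protein, and the array was scanned at 488 nm. Binding intensity is taken as the highest Masliner-normalised natural-log median intensity across replicate spots of either probe orientation.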
row,Sequence,gcPBM binding intensity (ln)
1,ATATAAAACAACGGGTGTACAAAAAAATAAATAATA [XGTACX_site4094],8.99 ± 0.61
2,TTTTTCTTCTGCATTATGCACACTATAATTCGTTAA [CACACA_site2837],9.24 ± 0.38
3,CTGAATGTATATATTTGTACATATATATATATATAT [XGTACX_site5557],9.3 ± 0.13
4,AAAAAAAAAAAACACGCATGTACATAAAAATAATCA [TGCATGCA_site142],9.14 ± 0.42
5,GGGTATAATAAAAGCACACACAAAGATATAAATATA [CACACA_site3308],9.4 ± 0.49
6,TTTTTTTTTTTTAATTAACACACATAAATATATATA [CACACA_site9077],8.6 ± 0.35
7,TATAATGATGATGATAGTACGTATGAGTTCAAAAAA [XGTACX_site3656],8.85 ± 0.42
8,TTAAAATCTTGAAAAGTGCATTATCATTTTGTAACG [GTGCAC_site9447],8.49 ± 0.42
9,TATATATTTATATATGCATGTACATTTTTATTTATT [TGCATGCA_site1048],8.96 ± 0.52
10,CTTTCATATGTTTTAACACACACGCATATATTATAG [CACACA_site7033],9.26 ± 0.41
11,AAAAAAAAAAAAAATACACACACATATATATATATA [CACACA_site8698],9.865 ± 0.05
12,AAGAATGTTAACGTTGCACACAAAAAAAAAGTATAC [CACACA_site8763],9.22 ± 0.45
13,ATATAAGTTATTTTATACAAAAAAAAAAAAAAAAAT [CACACA_negctrl_site1190],8.66 ± 0.45
14,TATTTATGCACGCGTGCACACACATATGAAAAAAGG [CACACA_site9090],9.28 ± 0.3
15,AATTGCTAATGGTACGAACACACATATAAAGATGCA [CACACA_site8634],9.05 ± 0.47
16,AGTATACACAGACACACACACACATATATATATATA [CACACA_site8510],10.3 ± 0.42
17,TTTTTATGGACTATGGTGCATTATATATAAATGAAA [GTGCAC_site9557],8.35 ± 0.34
18,TAATATTATATAAATTGTACTATTTTTTCCTTATTC [XGTACX_site5314],8.64 ± 0.51
19,GTAAACAATTATGAACGTACATAAAATAAATGAACA [XGTACX_site7159],9.12 ± 0.47
20,TGTCTTTTTAAGTTTTGTACATAAATATATTTCAAA [XGTACX_site427],8.62 ± 0.38
21,TTTTCATTTTTCTTTACACACATATATATATATATA [CACACA_site2236],9.28 ± 0.28
22,AAAAAAAAAAAAAAAAAAAAACACCCAAAAAAATAT [XGTACX_negctrl_site210],8.86 ± 0.44
23,GAAAGACAAATTGTGACACACACAAAAAAAAAAAAA [CACACA_site9241],9.26 ± 0.54

row,Sequence,gcPBM binding intensity (ln)
1,TATATATATATTTTTTGTACATATTATATAATATAC [XGTACX_site5187],8.82 ± 0.38
2,TTTTCGATATGCTTTTTTTTTCTACTGTCTTTTTAA [TGCATGCA_negctrl_site54],8.65 ± 0.61
3,ATATCAAATTCTGAAACACACAAAATTACACCTCTA [CACACA_site169],8.91 ± 0.26
4,TAAAAATAGGAGTGTGTGCACATAAATTATATACTA [GTGCAC_site9405],9.34 ± 0.46
5,CAAAAATATTATTATAGTACATAAATAATATATTTT [XGTACX_site6902],8.52 ± 0.57
6,CACATACATAAATACACACACAAAATAATAAAATAA [CACACA_site5304],9.52 ± 0.46
7,TTACTTAATAGACACACACACAAAAAAAAAAAAAAA [CACACA_site6572],9.4 ± 0.51
8,AAACAATAAAAGATTACACACATATATAGCATATAT [CACACA_site1698],9.16 ± 0.35
9,TATACATAATATATATGTACATATATTCTTTATTTT [XGTACX_site4565],8.78 ± 0.42
10,ATATTTTTTACTATTACACACAAGGGATTATTATTT [CACACA_site3915],9.13 ± 0.38
11,TCAAATAATTTGTTGACACACACACCCACATACATA [CACACA_site8717],9.72 ± 0.25
12,ACCTTATAAAAAAAAAGTACATATATAAATAATAAA [XGTACX_site4338],8.57 ± 0.47
13,CTATAATATTAGTGCACACACAAAAATGTACTAAAC [CACACA_site6442],9.38 ± 0.33
14,AAGAAAAAAACAAAAAAAAAAAAAAAAATTCTTATT [TGCATGCA_negctrl_site504],8.24 ± 0.66
15,ACTAATGTAAAAGTTTGTACATATATTGAGAATTAT [XGTACX_site7439],8.71 ± 0.52
16,ATTTTTTTCCACTAGTGTACAAATTTTACATTGTGT [XGTACX_site5023],9.22 ± 0.54
17,ATAAAATAAAAGGAATGTACTTTTTTTATTGTAATT [XGTACX_site4372],8.44 ± 0.42
18,AACAAATACGGACACACACACACACTAGAAAAAAAA [CACACA_site4442],9.82 ± 0.29
19,AACAAATTGAAACAATAATTGGAAAAAAAAAAAAAA [CACACA_negctrl_site1145],8.54 ± 0.44
20,TAAAAAAAAACAGAAACACACATTATTCATATAGAT [CACACA_site7052],8.89 ± 0.43
21,GTTATAAATTTTTTTTTTTTTTTTTTTTTTTTTTTT [CACACA_negctrl_site848],8.71 ± 0.35
22,AAAAGCACCGTTCGTTGTACACTGAAACACTTTTGT [XGTACX_site199],9.05 ± 0.46
23,AGTTTCTATTTAGTGTGTACTTAAGAAAAATATCTC [XGTACX_site82],8.69 ± 0.35

row,Sequence,gcPBM binding intensity (ln)
1,AAATGTATATATGTATGTACATATATATATATATAT [XGTACX_site5778],9.76 ± 0.29
2,ATAAACTGAGTGGTTACACACAAAACCAATAATTTT [CACACA_site3478],9.14 ± 0.5
3,ATATATATATATATATGTACTCATATTTTATTATTT [XGTACX_site898],9.665 ± 0.078
4,TATTGATAATTTTATATATACATACATAAATAAATA [CACACA_negctrl_site1687],8.29 ± 0.4
5,TTTTCAATTTTTTATGAACACACAAAAAAAAAAAAA [CACACA_site8808],8.2 ± 0.45
6,TCGCAAATAAATTAATGTACACATATATATATATAT [XGTACX_site5145],9.21 ± 0.47
7,GCACTAAAAAAATAAACACACAGATTTATATAATAT [CACACA_site1381],8.97 ± 0.49
8,AATAAGTTATTATTTTGTACACATAAATAATACGTT [XGTACX_site814],8.69 ± 0.51
9,AAGGAACTATAATATACACACATAAGTGTACTTATA [CACACA_site7816],8.94 ± 0.4
10,ATATATGCATATATTTGTACACATTTTTTTACATAA [XGTACX_site4624],8.87 ± 0.42
11,AAAAAAACGTAAAAATGTACTTTTTGTATATAACCT [XGTACX_site7950],8.77 ± 0.5
12,AAACAAAATAAATATGAACACACACCGTTATGCCTT [CACACA_site8347],9.29 ± 0.39
13,AGGAAAATTATGAATGGTACAGAATATATTAGGAGA [XGTACX_site6282],8.89 ± 0.53
14,TATTTGTGGATTTTTACACACATTAATATATATATA [CACACA_site3375],8.9 ± 0.34
15,TTATAAAATAAACTTACACACATGAAATATTATATT [CACACA_site1945],8.74 ± 0.42
16,ACATAGATGCATATCACACATAATAATATTGTCGTA [CACACA_site4819],9.12 ± 0.43
17,TAAAGCGACATTTGGAAAATATATATCCTAGCATTT [CACACA_negctrl_site327],8.77 ± 0.39
18,TATTCGTGCAATAGTAGTACACTTAAAAATTATTCA [XGTACX_site269],8.61 ± 0.45
19,ATTCGTTATAAAATATGTACATAAATATATATATAT [XGTACX_site2819],8.89 ± 0.3
20,AAAATACACAGACACACACACATATAAATAAATATT [CACACA_site7871],9.79 ± 0.19
21,TAATATTTCGCACTGTGTACTGAAATATTTATATCG [XGTACX_site516],8.76 ± 0.36
22,GTAGACTGAAACCACACACACATATATATATATATT [CACACA_site605],9.8 ± 0.13
23,ATAATAAGACGATAAGGTACACAAAATGTTAATATA [XGTACX_site6984],9.06 ± 0.43

row,Sequence,gcPBM binding intensity (ln)
1,TATTCAAATTTCCACATACACACCTTGTAGATATAT [CACACA_site281],8.88 ± 0.43
2,AAGAAAAAAAGCAACACACGTACCAACACAATTATG [CACACA_site3133],9.51 ± 0.35
3,AAGACAAATTTTACATGTACAAATATATTACATATA [XGTACX_site7060],8.81 ± 0.27
4,AATAATAATAAAAATAAACACACATATATATGTATA [CACACA_site8928],8.94 ± 0.35
5,ATTTCTTTTGTTATAGTGCATAATATTTATGTACGT,8.9 ± 0.44
6,AAAGAAAGAAAGAAAAGTACTTAAACTTTTAAAAAT [XGTACX_site8531],8.54 ± 0.69
7,ATATTAATATATAGAAGTACTCACATGTTAATATAA [XGTACX_site7323],8.72 ± 0.47
8,TTAAATAAATAAATAACACACATATAAAAATAACGC [CACACA_site3266],9.2 ± 0.33
9,TAACTATCATGTATTACACACAATATTTATTATATA [CACACA_site2701],8.85 ± 0.47
10,GAATAATATGGACATACACACATATACATACATATA [CACACA_site2114],9.27 ± 0.39
11,TTATTTCATTCTTGAAGTACGTGAAAAATGAAAACA [XGTACX_site4089],8.44 ± 0.33
12,TTACCTTTATTGTATGAACACACATAAGCTGATACA [CACACA_site9334],8.87 ± 0.35
13,AAAAAAAAAAAAAGAGTGCAAACTATGATAATTTAA,8.82 ± 0.63
14,ACATATGAATATAATACACACTTGTATTATTAATAT [CACACA_site8546],8.94 ± 0.35
15,CCATTTTTTTTATACGCACACGTCATACTTTTAAAA [CACACA_site4988],9.19 ± 0.57
16,AAAATTTAATATAATGCACACATAAAAAAAAAAAAA [CACACA_site7923],8.85 ± 0.42
17,TATATATATACATATTGTACATGTGTATATTTTTTT [XGTACX_site361],8.92 ± 0.44
18,TTAGTTATTAAAAAAAGTACATAAGTAGATATCATC [XGTACX_site8712],8.7 ± 0.45
19,AATATATGTAATATATGTACTTAATTATATTTTAAT [XGTACX_site4382],8.66 ± 0.42
20,TATAAAATATAATTAGCACACATATATAAAATATAT [CACACA_site9355],8.77 ± 0.4
